Entries with a single value are a further part of the results.
Tested on: human term placenta
Assay: Effect of dexamethasone and GnRH on prostanoid release from perifused human term placental explants
Format: cell-based
Conditions: dexamethasone 10^−8 M, seventh hour of incubation
Protocol: Medium 199 (x2) with Earles' Modified Salts, bicarbonate and L-glutamine without phenol red was purchased from Gibco (Chagrin Falls, Ohio). Penicillin, streptomycin, bovine serum albumin and Indomethacin were obtained from Sigma Chemicals (St. Louis, Mo.). Placental perifusion was performed essentially as described in Example 3.
Samples were stored at −20° C. until assayed for PGE, PGF, PGFM, Tx B2 or 6-keto-PGF1α. Recovery and stability of these prostanoids in this perifusion system and during storage were assessed by spiking the medium with prostanoids and perifusing it through empty chambers and collecting samples as described above. In addition, samples were frozen and thawed repeatedly and re-assayed. Prostanoid recovery and stability were nearly 100%. Thus, no data correction for procedural losses was done. Radioimmunoassays were performed as described in Example 1.
The perifusion system described at Examples 2 and 3 was used in the present study. […] It took one hour for the input medium to pass through the perifusion tubing and chamber and to be collected in the sample tube. Four replicated chambers were perifused with each of the three experimental media, while, in another four replicated chambers, the perifusion was continued with the control Medium 199.
Hormonal values for a given chamber were normalized to the fifth-hour prostanoid release for that chamber, expressed as a percent release over the fifth-hour release. […] Thus, the release of each chamber was related to functional competence at the time of treatment rather than to its mass.
The mean release for replicate chambers from a given placenta for each particular hormone in the presence of GnRH, dexamethasone, or GnRH and dexamethasone at each point was calculated. Similar calculations were done for the control chambers. The mean data for each treatment for the three different placentas were subjected to statistical analyses. Thus, the response for each placenta was weighed equally. Two-way analysis of variance was used to determine if there was significant main effect or interaction.
In addition, the cumulative release for each hormone from each placenta for each treatment was calculated. One-way analysis of variance was used to test for statistically significant effects of treatment. The points of significant variation were determined using Student-Newman-Keuls' test.

`C[C@@H]1C[C@H]2[C@@H]3CCC4=CC(=O)C=C[C@]4(C)[C@@]3(F)[C@@H](O)C[C@]2(C)[C@@]1(O)C(=O)CO` [dexamethasone] was tested, and the “release as percent of control” value (6-keto-PGF1alpha release) was 63%, the “release as percent of control” value (PGF release) was 52% and the “release as percent of control” value (PGFM release) was 65%. The “release as percent of control” value (TxB2 release) was 53%.

From patent publication US6461613B2, “Methods and compositions for the selective regulation of chorionic prostanoids” (priority 1993, dated 2002)
